Results: article PMC4336329 (PLoS ONE, 2015)
The campaign covered roughly 310,000 compounds. About 14,000 (4.5%) showed an effect of 50% or more. The effect is printed as a negative number. Some of the results follow.

Molecular target: human ether-à-go-go-related gene (hERG) potassium channel (human, UniProt Q12809)
Assay: primary screen, population patch clamp on CHO cells stably expressing hERG
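Also: peak tail current of the secondary pulse compared with the same well before compound.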

human ether-à-go-go-related gene (hERG) potassium channel, sequence (Q12809 whole entry, looked up): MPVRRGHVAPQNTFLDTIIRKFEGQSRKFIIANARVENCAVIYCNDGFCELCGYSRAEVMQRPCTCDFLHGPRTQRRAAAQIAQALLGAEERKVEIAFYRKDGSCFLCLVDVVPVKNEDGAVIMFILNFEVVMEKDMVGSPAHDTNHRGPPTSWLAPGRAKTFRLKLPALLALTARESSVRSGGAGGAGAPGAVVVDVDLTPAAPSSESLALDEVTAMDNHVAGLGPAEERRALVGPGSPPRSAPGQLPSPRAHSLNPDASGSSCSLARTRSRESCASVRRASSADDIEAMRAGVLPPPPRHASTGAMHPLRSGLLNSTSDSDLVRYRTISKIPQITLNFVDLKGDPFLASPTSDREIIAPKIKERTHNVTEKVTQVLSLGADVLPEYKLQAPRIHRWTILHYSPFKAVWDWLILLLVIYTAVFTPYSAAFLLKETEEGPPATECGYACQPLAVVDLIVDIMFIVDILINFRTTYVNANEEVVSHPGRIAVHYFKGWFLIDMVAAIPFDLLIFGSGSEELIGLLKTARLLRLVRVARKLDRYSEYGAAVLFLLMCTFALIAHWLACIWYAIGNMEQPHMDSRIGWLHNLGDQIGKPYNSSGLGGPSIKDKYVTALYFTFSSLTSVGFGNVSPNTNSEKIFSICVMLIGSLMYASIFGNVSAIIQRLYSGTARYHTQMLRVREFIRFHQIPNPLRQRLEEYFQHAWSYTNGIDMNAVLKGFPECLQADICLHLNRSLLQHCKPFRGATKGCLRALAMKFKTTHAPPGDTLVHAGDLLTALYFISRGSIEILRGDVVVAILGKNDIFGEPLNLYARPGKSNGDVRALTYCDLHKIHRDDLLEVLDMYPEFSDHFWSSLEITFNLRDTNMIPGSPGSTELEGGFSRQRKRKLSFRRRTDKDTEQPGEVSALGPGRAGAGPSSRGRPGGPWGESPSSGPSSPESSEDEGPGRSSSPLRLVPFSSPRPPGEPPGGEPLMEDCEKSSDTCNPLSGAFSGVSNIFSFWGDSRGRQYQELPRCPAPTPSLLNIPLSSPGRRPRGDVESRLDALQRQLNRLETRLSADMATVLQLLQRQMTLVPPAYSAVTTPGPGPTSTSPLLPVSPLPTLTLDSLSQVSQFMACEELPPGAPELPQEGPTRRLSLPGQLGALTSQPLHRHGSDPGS

| SMILES | hERG current change (%, negative = inhibition) at 10uM [%] |
| --- | --- |
| CC(C)CCn1cnc2c1c(=O)n(C)c(=O)n2C | -9.74 |
| Cc1cccc(-n2ccnc2SCC(=O)Nc2cc(C)on2)c1 | 2.47 |
| CN1CCN(C2=CC(=O)OC23CCCCC3)CC1 | 15.2 |
| COc1cccc2sc(Nc3nnc(-c4cccs4)o3)nc12 | 4.96 |
| CCC(C(=O)NCCCN1CCCCCC1)n1nc(C)c2sc3ccccc3c2c1=O (stereo not drawn) | 12.5 |
| O=C(NCC1CCCO1)c1cc(S(=O)(=O)N2CCCC2)c(Cl)cc1Cl (stereo not drawn) | 10.1 |
| COc1cccc(C(=O)NNC(=O)c2cccc(F)c2)c1 | 20.5 |
| CC[n+]1c(/C=C/N(C)c2ccccc2)oc2ccccc21.O=S(=O)([O-])CCO | 0.826 |
| Cc1ccccc1OCCSc1nc2ncnc(N)c2[nH]1 | 25.8 |
| COC(=O)c1c(NC(=O)C2C3CCC(C3)C2C(=O)O)sc2c1CCCCC2 (stereo not drawn) | 3.42 |
| O=C(NNc1nc2c(F)cc(F)cc2s1)c1ccccc1 | 8.87 |
| CC1Cc2ccccc2N1C(=O)CSCC(=O)O (stereo not drawn) | 11.8 |
| NC(=O)C1CCN(C(=O)CC2(CC(=O)O)CCCCC2)CC1 | 14.6 |
| O=c1c2cnn(-c3ccc(F)cc3)c2ncn1Cc1ccc(F)cc1 | -0.17 |
| O=C1CC(c2cc3c(cc2Br)OCO3)C2=C(CCCC2=O)N1 (stereo not drawn) | -3.89 |
| CC(C(=O)NC1CCCC1)N(c1ccc(Oc2ccccc2)cc1)S(C)(=O)=O (stereo not drawn) | -24.1 |
| COc1cc(OC)c(C2=Nc3ccc(Br)cc3C(c3ccccc3)N2CC(=O)NN)cc1OC (stereo not drawn) | -16.2 |
| COc1ccccc1CNC(=O)[C@H](C)NC(=O)C1CCN(C(=O)[C@@H](N)Cc2ccccc2)CC1 | 3.46 |
| Cc1nnc(Nc2ccc3c(c2)ncn3C)c2ccccc12 | 0.0649 |

| SMILES | hERG current change (%, negative = inhibition) at 10uM [%] |
| --- | --- |
| COc1cc(/C=C2/C(=O)NN(c3cccc(Cl)c3)C2=O)cc(Br)c1O | 15 |
| CCCCNC(=S)NNc1c(Cl)cc(Cl)cc1Cl | 5.71 |
| N#C/C(=C\Nc1ccccn1)S(=O)(=O)c1ccc(Cl)cc1 | 10.2 |
| COc1cccc(N=C(N)N=C(N)N)c1 | 17 |
| CC(C)(C)OC(=O)NOCC(=O)N(CC(=O)c1ccccc1)Cc1ccccc1 | -2.3 |
| O=C(Nc1ccccc1)Oc1cccc(Br)c1 | 7.36 |
| CN(N=Nc1cccc([N+](=O)[O-])c1)c1ccccc1 | 4.55 |
| CC1CCCN(Cc2nc3c(c(=O)n(C)c(=O)n3C)n2CC(=O)c2ccccc2)C1 (stereo not drawn) | -8.71 |
| Cc1ccc2c(c1)N(C(=O)CCC(=O)O)CCO2 | 7.39 |
| CS(=O)(=O)NCCSCc1c(Cl)cccc1Cl | 1.77 |
| Cc1ccc2c(cnn2C(=O)CCC(=O)NCc2ccccc2Cl)c1 | 6.52 |
| Cc1ccc(OCCNC(=O)C2CC(=O)N(Cc3ccccc3)C2)cc1 (stereo not drawn) | -16.4 |
| Cc1ccc(C)c(N2CCN(C(=O)CCCn3c(=S)[nH]c4cc5c(cc4c3=O)OCO5)CC2)c1 | 5.9 |
| CCCCNC(=O)COCc1cc(-c2ccc3c(c2)OCO3)on1 | -6.65 |
| CC1CCCC(NC(=O)c2cccc(S(=O)(=O)N3CCN(c4ccccc4)CC3)c2)C1C (stereo not drawn) | 6 |
| COC(=O)c1ccc(NC(=O)CNC(=O)c2sc3ccccc3c2Cl)cc1 | -0.0337 |
| O=C(COc1ccccc1)NCc1ccc(-n2cccc2)cc1 | 20.1 |
| CC(C)C(=O)Nc1nc2c(c(=O)[nH]1)CCCC2 | 10.9 |
| COc1cccc(NC(=O)N2CCCC2C(=O)NCc2ccco2)c1 (stereo not drawn) | 3.72 |

| SMILES | hERG current change (%, negative = inhibition) at 10uM [%] |
| --- | --- |
| O=C(NNc1ncnc2c1cnn2-c1ccccc1)c1cccs1 | 14.6 |
| COc1ccccc1-n1c(SCC(=O)N(C)C2CCS(=O)(=O)C2)nc2ccccc2c1=O (stereo not drawn) | -7.47 |
| COc1ccc(CCn2c(=N)c(C(=O)NC3CCCC3)cc3c(=O)n4ccccc4nc32)cc1 | -81.9 |
| OCCC1CN(Cc2cccn2-c2ccccn2)CCN1Cc1ccccc1 (stereo not drawn) | -76.5 |
| CC(C)c1ccc(C(=O)NNC(=O)c2ccncc2)cc1 | 26.6 |
| COC(=O)c1ccc(OS(=O)(=O)c2ccc(NC(C)=O)cc2)cc1 | -3.32 |
| O=C(c1ccc(S(=O)(=O)N2CCCCC2)cc1)N1CCCc2ccccc21 | 2.76 |
| Cc1cc(C(=O)CSc2nnc(N)s2)c(C)n1CCc1ccc(F)cc1 | -6.89 |
| COc1cccc(C(=O)NNC(=O)C(=O)Nc2ccc(OC)cc2OC)c1 | 9 |
| O=C(C1CCCN1C(=O)c1cccs1)N1CCN(Cc2ccc3c(c2)OCO3)CC1 (stereo not drawn) | -6.29 |
| COc1ccccc1N1CCN(C(=O)c2oc3c(c2C)C(=O)CC(C)(C)C3)CC1 | 10.2 |
| COc1ccc(C(=O)N(C)CCCC2CCCC2)cc1OC1CCN(C(C)=O)CC1 | -32.2 |
| C=CCOC(=O)C1=C(C)NC(SCC(N)=O)=C(C#N)C1c1ccc(C)cc1 (stereo not drawn) | -9.19 |
| Cc1ccc(NC(=O)C2CCN(S(=O)(=O)c3cccc(C(F)(F)F)c3)CC2)nc1 | 5.17 |
| O=C(Nc1ccc(Br)cc1)c1cccc(-n2cnnn2)c1 | 2.19 |
| NS(=O)(=O)c1ccc(CCNC(=O)c2cnccn2)cc1 | 15.2 |
| Cc1cccc(-c2nc(CSCC(=O)N3CCN(c4ccccn4)CC3)c(C)o2)c1 | -41.2 |
| COc1ccc(C(=O)NNC(=O)C2=NN(c3ccccc3)C(=O)CC2)cc1 | 8.1 |
| CCn1c(SCC(=O)N/N=C/C=C/c2ccccc2[N+](=O)[O-])nnc1-c1ccc(Cl)cc1 | -15.6 |
